# Experimental data as given in ChEMBL document CHEMBL4888484, “Replenishing the malaria drug discovery pipeline: Screening and hit evaluation of the MMV Hit Generation Library 1 (HGL1) against asexual blood stage Plasmodium falciparum ,using a nano luciferase reporter read-out” (2022).
# Screen size: about 150,000 compounds; about 540 (0.36%) showed an effect of 50% or more. Some of the results follow.
# System: Plasmodium falciparum
# Test: Primary screen in NF54 nanoGlo assay, in single point, at 2uM, 72h; a lower Z score goes with more inhibition
# Type: functional, Erythrocyte
# Details: timepoint 72 hour
Compound,% Inhibition [%],Z score
O=S(=O)(NCC1(Cn2ccnc2)CC1)N1CCCC1,-7,1.37
CCn1nccc1C(=O)Nc1ccc(-c2nc3ccccc3s2)cn1,-14,2.04
CN(CCN1CCOC1=O)C(=O)C1CC1C1CCCCC1 (configuration not stated),-10,1.58
COc1cc(C(=O)NC2CCCCCC2)ccc1OC1CCN(C)CC1,-13,1.85
N#Cc1c[nH]c(C(=O)N2CC[C@H](N3CCCCC3)C2)c1,-8,1.21
Cc1cccc(CN(Cc2ccccc2)C(=O)c2ccc(C)n2C)n1,1,-0.17
Cc1noc(C2CC2)c1NS(=O)(=O)c1ccc(CC(F)(F)F)cc1,7,-0.84
CC1=NO[C@](C)(c2nc(C3CC3)no2)C1,-8,1.38
O=C(Nc1ccnnc1)c1ccoc1C1CC1,-2,0.4
Cc1nn(C)cc1COc1ccccc1N,-11,1.24
CC(=O)c1cccc(NC(=O)CN2CCN(c3cccc(Cl)c3)C2=O)c1,-7,0.8
Cc1ncoc1C(=O)NCCCc1scnc1C,-11,1.94
O=C(CCCOc1ccc2c(c1)OCO2)NCCCn1ccc2cccnc21,-12,1.87
CN1CCN(C[C@@]2(Cc3ccccc3)CCOC2)CC1,-3,0.56
O=S(=O)(NC1CCCCC1N1CCN(c2ccccc2F)CC1)c1ccccc1 (configuration not stated),-8,0.98
Cn1cccc1C(=O)NCc1ccc(OCC(F)(F)F)nn1,-7,1.27
CC1COCC1NC(=O)C1CCC2CCCCC2C1 (configuration not stated),-19,3.54
CC(C)N1CN=C(NS(C)(=O)=O)NC1,9,-1.43
CC(C)N(CC(C)(C)O)C(=O)N[C@@H](C)c1cc(F)c(F)c(F)c1,-3,0.29

Compound,% Inhibition [%],Z score
Cc1ccc(NC(=O)O[C@@H]2CC[C@]3(C)C(CC[C@@H](O)[C@H]3CC(=O)N3CCCC3)[C@]2(C)CO)cc1 (some centres not stated),-2,0.36
O=C(Nc1nc(C(=O)N2CCc3ccccc32)co1)c1cnccn1,-2,0.27
Cc1ccccc1OCCNC(=O)NCc1ccoc1,5,-0.8
NC(=O)c1csc(CN[C@H](c2ccccn2)C2CCCC2)c1,-7,0.78
CCN(CC)CCCC(C)NC(=O)CC(CCc1ccccc1)c1cn(Cc2ccc(C)cc2)c2ccccc12 (configuration not stated),-9,1.18
OCC(C1CC1)C(NCc1cccc2c1OCO2)C1CC1 (configuration not stated),-9,1.21
N#Cc1c(F)cccc1NCc1nnc2n1CCC2,-1,0.1
Cc1ccc(NC(=O)c2nc(CCc3ccccc3)n(-c3ccccc3C)n2)cc1C,-5,0.89
Fc1ccc2c(c1)-c1nc(-c3ccc(Cl)cc3)cc(-c3ccccc3)c1CO2,-9,0.98
Cc1cc(-c2ccc(S(=O)(=O)Nc3cccc(-c4ccno4)c3)cc2)on1,2,-0.35
CCC(=O)N1CCC[C@@](NCc2cccs2)(c2nnnn2C2CCCC2)C1,4,-0.52
O=C(Nc1nc2c(s1)CCCC2)C1=COCCO1,-13,2.27
CCC(C)C(NS(=O)(=O)c1ccc(C)cc1Cl)C(=O)NCCN1CCOCC1 (configuration not stated),-4,0.69
O=C(C[C@@H]1C[C@@H]2C=C[C@H]1C2)NCc1cccnc1-n1cnc2ccccc21,-5,1.06
COc1ccc(NC(=O)Cc2n[nH]c(=O)c3cc(-c4ccc(F)cc4)nn23)cc1Cl,-11,1.48
CCn1cc(CN(C)Cc2cc(C(C)C)on2)cn1,11,-1.43
CCC1CCCCC1NCC1CCS(=O)(=O)CC1 (configuration not stated),-5,0.67
CCn1ncnc1-c1c(-c2ccccc2)ncn1C[C@H](C)Oc1cccnc1,-7,1.41
COc1cc([C@H]2CC(=O)Nc3c2cnn3C)ccc1OCCc1ccccc1,-17,2.58

Compound,% Inhibition [%],Z score
O=C(NCCCCNC(=O)c1cccnc1)c1cccnc1,28,-3.22
COC(=O)c1cn(CN2CCC[C@H](C(F)(F)F)C2)nn1,-8,1.06
Cn1ccnc1[C@H]1CCN(Cc2nnc3n2CCCCC3)C1,-8,1.04
O=C(NC[C@H]1CCCN(c2ccncc2F)C1)c1cscn1,6,-1.22
COc1ccc(CCNC(=O)c2c(O)c3cccc4c3n(c2=O)[C@@H](C)C4)cc1OC,3,-0.44
Cc1noc(C)c1CNCc1cnc2ccc(Br)cn12,-9,1.81
COC1CCCC1OC(=O)c1ccncc1F (configuration not stated),6,-0.7
Cc1ccc(-c2nnc(-c3nc(NCCc4c(C)noc4C)c4ccccc4n3)o2)cc1,3,-0.52
Cc1cc(C)c(CNC(=O)c2ccc(-c3ccco3)[nH]c2=O)c(=O)[nH]1,-18,2.5
N[C@@]1(C(=O)Nc2cncc(C(F)F)c2)CCc2cc(Br)ccc2C1,-15,1.64
CN=C(NCc1ncc(C)s1)N1CCN(Cc2cccs2)CC1,-3,0.32
COCC1(S(=O)(=O)Nc2ccc(-n3ccc(=O)[nH]3)c(F)c2)CC1,-8,1.46
O=C(CN1CCC(n2cc(NS(=O)(=O)C(F)F)cn2)CC1)NCc1ccccc1,-8,0.9
FC1(F)CC(CN2CCOCC23CC3)C1,3,-0.34
Cc1nonc1CC(=O)NCc1cccnc1Oc1ccc(F)c(F)c1,-21,2.67
Cn1cc(-c2nc3ccccc3c(=O)[nH]2)cn1,8,-0.91
Cc1nc(N2CCCCCCC2)ncc1[C@H](C)NCC1CC1,-5,0.77
O=C(NCCOc1cccc(Cl)c1Cl)NC1CCC(O)CC1 (configuration not stated),-16,2.43
